Consider 115 sequences from the BET-seq Pho4 binding data (Le et al. 2018).

Some of the results follow. The energies were worked out here from pooled read counts, against the library average; single values are noisy.

The target of the assay is T1, Pho4 (S. cerevisiae) (UniProt P07270).
T1 sequence: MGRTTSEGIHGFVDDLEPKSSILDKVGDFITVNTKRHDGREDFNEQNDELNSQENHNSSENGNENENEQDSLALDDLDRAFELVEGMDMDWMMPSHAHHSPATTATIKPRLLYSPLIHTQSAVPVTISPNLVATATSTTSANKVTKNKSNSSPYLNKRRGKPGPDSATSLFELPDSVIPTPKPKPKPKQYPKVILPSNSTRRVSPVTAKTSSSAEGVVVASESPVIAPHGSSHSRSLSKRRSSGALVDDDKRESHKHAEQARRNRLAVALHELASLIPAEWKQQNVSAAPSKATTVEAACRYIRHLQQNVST
Put plainly: relative binding free energy (BET-seq); higher = weaker binding. The settings on record: reference: library average.
For the sequence GTTGTCACGTGAGTTA, the “relative binding free energy” value turned out to be 0.29 kcal/mol.
The figure for TATATCACGTGTAAGG is 0.13 kcal/mol; for AAATTCACGTGAGTAT it is 0.38 kcal/mol; for GGGGACACGTGGTAGT it is 0 kcal/mol.
Regarding GGAGTCACGTGGTTTA, the “relative binding free energy” value is 0.02 kcal/mol.
In the case of TTTGACACGTGGAGCT it was -0.02 kcal/mol.
In the case of GGGTACACGTGGCGTA it was 0.02 kcal/mol; in that of GGGAACACGTGGTCTG, -0.06 kcal/mol.
In the case of ATACTCACGTGTGTTT it was 0.13 kcal/mol; in that of TGAGTCACGTGTTACT, 0.13 kcal/mol; in that of TCATTCACGTGATAGT, 0.23 kcal/mol.
Take ATTAACACGTGTATAT: the “relative binding free energy” value was -0.03 kcal/mol.
As to TAATCCACGTGTATGT, the “relative binding free energy” value stood at 0.02 kcal/mol.
In the case of CTGGGCACGTGTAATG it was -0.03 kcal/mol; in that of TGTCTCACGTGTTTTT, 0.22 kcal/mol; in that of GGAGGCACGTGTTTGC, -0.11 kcal/mol.
For the sequence TTGGACACGTGTGCGG, the “relative binding free energy” value was 0.03 kcal/mol.
In the case of CGTGTCACGTGTATGT it was -0.13 kcal/mol; in that of GGGTCCACGTGGGCAA, 0.11 kcal/mol; in that of GGATTCACGTGGAATA, 0.45 kcal/mol.
Take TTCGGCACGTGGTTTC: the “relative binding free energy” value is -0.15 kcal/mol.
Turning to TGAAGCACGTGTAGGC, the “relative binding free energy” value was -0.12 kcal/mol.
The figure for ATAGTCACGTGTCTGT is 0.02 kcal/mol; for ATAGGCACGTGTGGCT it is -0.1 kcal/mol; for CTTGACACGTGAGATA it is 0.41 kcal/mol.
In the case of TATAACACGTGGGTGA, the “relative binding free energy” value is -0.33 kcal/mol.
With ATTGTCACGTGGATCG, the “relative binding free energy” value came out at 0.06 kcal/mol.
On to GTTTTCACGTGTCCGT, for which the “relative binding free energy” value is 0.34 kcal/mol.
The figure for AGCTGCACGTGGATTT is -0.09 kcal/mol.
In the case of TTTGGCACGTGAGCCG it was 0.19 kcal/mol; in that of AGGGTCACGTGGTACA, -0.01 kcal/mol; in that of TCTATCACGTGTGGCG, 0.22 kcal/mol.
The figure for TCGCACACGTGGGGTT is -0.18 kcal/mol; for AGTTCCACGTGATTTT it is 0.23 kcal/mol; for GTTCGCACGTGGATGT it is -0.03 kcal/mol.
For the sequence GTGTTCACGTGCGTCT, the “relative binding free energy” value is 0.22 kcal/mol.
ATGGGCACGTGTTAGT: the “relative binding free energy” value is -0.1 kcal/mol.
On to TGGAACACGTGAGTTT, for which the “relative binding free energy” value was determined as 0.31 kcal/mol.
Turning to CTGGTCACGTGACAGT, the “relative binding free energy” value worked out at 0.28 kcal/mol.
Consider ATGGTCACGTGGGCAC, for which the “relative binding free energy” value amounted to 0.02 kcal/mol.
Turning to ATTAACACGTGACTTT, the “relative binding free energy” value was 0.12 kcal/mol.
Turning to GCCTGCACGTGAGTGG, the “relative binding free energy” value was 0.14 kcal/mol.
AGGTCCACGTGTGTGA: the “relative binding free energy” value is 0.04 kcal/mol.
As for TGAGTCACGTGTTGGT, the “relative binding free energy” value was found to be 0.21 kcal/mol.
In the case of TGAATCACGTGGACGG, the “relative binding free energy” value was 0.22 kcal/mol.
Consider CTTGTCACGTGAGTGT, for which the “relative binding free energy” value stood at 0.38 kcal/mol.
For the sequence TTATTCACGTGGTATC, the “relative binding free energy” value worked out at 0.17 kcal/mol.
GTCTACACGTGTTGGG: the “relative binding free energy” value came out at 0.07 kcal/mol.
As for GGCGACACGTGGCGGG, the “relative binding free energy” value was -0.15 kcal/mol.
For the sequence TGATACACGTGTTTGG, the “relative binding free energy” value is 0.1 kcal/mol.
Consider AAGTTCACGTGGAGAT, for which the “relative binding free energy” value amounted to 0.12 kcal/mol.
As for TGAATCACGTGGGTCT, the “relative binding free energy” value was found to be 0.07 kcal/mol.
As for TCTTGCACGTGGTGTC, the “relative binding free energy” value is -0.02 kcal/mol.
The figure for TGTTGCACGTGTTGGA is 0.05 kcal/mol; for AGTAACACGTGGTGAT it is -0.05 kcal/mol; for AGGGTCACGTGGCTAG it is -0.01 kcal/mol.
Regarding GGAGGCACGTGAAGTA, the “relative binding free energy” value stood at 0.19 kcal/mol.
In the case of GTCGGCACGTGGGAGA it was -0.19 kcal/mol; in that of TCGAGCACGTGGGTAT, -0.27 kcal/mol; in that of AGAGGCACGTGGCGAA, -0.11 kcal/mol.
AATTACACGTGTTAGG: the “relative binding free energy” value is 0.08 kcal/mol.
As for GGTGGCACGTGGTGAA, the “relative binding free energy” value was -0.1 kcal/mol.
The figure for AGGTACACGTGATCTG is 0.21 kcal/mol; for GGTTACACGTGGTGGA it is 0.15 kcal/mol.
On to TAGTGCACGTGTCTTT, for which the “relative binding free energy” value was -0.08 kcal/mol.
For CGATTCACGTGTAGTG, the “relative binding free energy” value turned out to be 0.29 kcal/mol.
As to GAGGGCACGTGTGCGC, the “relative binding free energy” value was -0.11 kcal/mol.
With ATGGCCACGTGTTTAG, the “relative binding free energy” value came out at 0.03 kcal/mol.
On to ACGTGCACGTGGGTCT, for which the “relative binding free energy” value was -0.21 kcal/mol.
The figure for GCTTTCACGTGTGTGA is 0.21 kcal/mol; for AATGCCACGTGAGGGG it is -0.04 kcal/mol; for ATATACACGTGTAAAG it is 0.1 kcal/mol.
On to AGTATCACGTGTTTGT, for which the “relative binding free energy” value turned out to be 0.05 kcal/mol.
On to TCATTCACGTGAGTGG, for which the “relative binding free energy” value stood at 0.45 kcal/mol.
In the case of TAGTGCACGTGGTAAG it was -0.05 kcal/mol; in that of TTACTCACGTGTTCGT, 0.1 kcal/mol; in that of GTGAGCACGTGAGATA, 0.29 kcal/mol.
Take GTGAGCACGTGTATGG: the “relative binding free energy” value was 0.09 kcal/mol.
The figure for ATCTGCACGTGGGGAG is -0.13 kcal/mol; for TGTTGCACGTGAATTC it is 0.24 kcal/mol.
On to ATGGTCACGTGGCGGT, for which the “relative binding free energy” value is -0.06 kcal/mol.
Take CTTACCACGTGGGTTT: the “relative binding free energy” value is -0.06 kcal/mol.
As to GTGGGCACGTGGCGGT, the “relative binding free energy” value was -0.13 kcal/mol.
For TTTTTCACGTGCTTCT, the “relative binding free energy” value was determined as 0.26 kcal/mol.
In the case of TAAGACACGTGATAGT it was 0.02 kcal/mol; in that of TACGCCACGTGGGGTG, -0.35 kcal/mol; in that of GAGAACACGTGTTGTG, 0.01 kcal/mol.
The figure for TGGGACACGTGGTTGG is 0.02 kcal/mol.
In the case of ATTGACACGTGGTGGA it was 0.03 kcal/mol; in that of TATGCCACGTGCGTGG, 0 kcal/mol.
With TGTGCCACGTGTGGGT, the “relative binding free energy” value was -0.12 kcal/mol.
Consider TAAGTCACGTGGCGTG, for which the “relative binding free energy” value is -0.04 kcal/mol.
As for GCGGTCACGTGTGGGT, the “relative binding free energy” value was found to be 0.08 kcal/mol.
In the case of GAAGTCACGTGATTGG it was 0.27 kcal/mol; in that of GTATACACGTGGATGG, 0.07 kcal/mol; in that of TAGTACACGTGATTGG, 0.13 kcal/mol.
The figure for GTAGACACGTGTAGTA is 0.07 kcal/mol; for AGTGGCACGTGGAAGG it is -0.07 kcal/mol.
GTAGTCACGTGGGAAA: the “relative binding free energy” value worked out at 0.01 kcal/mol.
For the sequence TGATTCACGTGCGAGA, the “relative binding free energy” value is 0.42 kcal/mol.
With TGTGGCACGTGGGATA, the “relative binding free energy” value is -0.19 kcal/mol.
In the case of AGTGTCACGTGAGGGC it was 0.19 kcal/mol.
As for GTGTTCACGTGGGTCT, the “relative binding free energy” value is 0.14 kcal/mol.
As for TGATGCACGTGGGGTG, the “relative binding free energy” value is -0.19 kcal/mol.
Turning to AGGGCCACGTGTGTGT, the “relative binding free energy” value is -0.23 kcal/mol.
The figure for TCGGGCACGTGTGGTC is -0.11 kcal/mol; for CGGGTCACGTGGTGAA it is -0.03 kcal/mol; for AAAGTCACGTGGTAGC it is 0.19 kcal/mol.
Take TTTCTCACGTGGTGGT: the “relative binding free energy” value was 0.3 kcal/mol.
For TGGTGCACGTGTTATG, the “relative binding free energy” value is -0.02 kcal/mol.
In the case of TACCTCACGTGTGGGT it was 0.31 kcal/mol; in that of TGTGACACGTGTGGTG, 0.12 kcal/mol.
GTGGTCACGTGAGGCT: the “relative binding free energy” value came to 0.29 kcal/mol.
Regarding CTAGGCACGTGGGCGT, the “relative binding free energy” value was -0.25 kcal/mol.
In the case of TTGCTCACGTGGGACG it was 0.18 kcal/mol.
